# In all, about 13,000 compounds were measured (“IFI”: median about 4, highest 2% from about 17 on). This is one part of the list.
# Experiment: GSK_TCMDC: Inhibition Frequency Index (IFI). The number of non-kinase HTS assays where a compound showed > 50 % inhibition, expressed as a percentage of the number of such assays in which the compound was tested (-0 is zero)
# Assay type: functional
row,SMILES,IFI [%]
1,N#Cc1cccc(C(O)C2CN(CCC3CCCCC3)CCC2(O)c2ccccc2)c1 (stereo not given),1.67
2,CC(C)CCN1CCCN(Cc2ccc(C(=O)Nc3ccc(C(C)(C)C)cc3)cc2)CC1,12.5
3,Cc1noc(C)c1-c1ccc2c(Nc3ccccc3C(C)(C)C)c(C(=O)NCc3ccccc3)cnc2c1,13.8
4,OC(COCc1ccc(-c2ccccc2)cc1)CN1CCCCC1 (stereo not given),-0
5,Cc1ccc(OCCCON2C(=N)N=C(N)NC2(C)C)cc1C,3.57
6,CN(C)CC(=O)Nc1ccc(Nc2nccc(NCC(O)c3ccccc3)n2)cc1 (stereo not given),2.94
7,COc1cc(CNCCC(C)C)ccc1OCc1cccc(COc2ccc(CNCCC(C)C)cc2OC)c1,12.1
8,CC(C)(C)c1ccc(NC(=O)c2ccc(CN3CCCN(Cc4cccc(C#N)c4)CC3)cc2)cc1,14.5
9,CCCCCCN1CCC(NCc2cccc(-n3ccnc3)c2)CC1,0.68
10,Nc1nc(N)c2c(ccc3c2cnn3S(=O)(=O)N2CCCC2)n1,3.45
11,Nc1c2ccccc2nc2cc(C(F)(F)F)ccc12,1.46
12,Clc1cccc(-c2nc(Nc3ccnc(-c4ccc(CN5CCOCC5)cc4)c3)c3ccccc3n2)c1,3.64
13,Cc1nc2nc(N)nc(N)c2c(C)c1Cc1ccc(C(F)(F)F)cc1,1.46
14,Cc1ccccc1C1CCN(C2CCC(NC(=O)c3cncc(-c4ccccc4)c3)CC2)CC1 (stereo not given),3.51
15,Cc1ccc(C)c2c1[nH]c1ccc(C3=NCCN3)cc12,5.71
16,N=C(N)NN=CC(=O)Nc1ccc(Br)cc1,2.27
17,COc1cccc(-c2ccc3c(-c4cccc(NC(C)=O)c4)cnc(N)c3c2)c1,15
18,Cc1oc(-c2ccccc2)nc1CCOc1ccc(C[C@H](Nc2ccccc2C(=O)c2ccccc2)C(=O)NCc2ccccn2)cc1,0.76
19,C=Cc1ccccc1C1(O)CCN(CCCCNC(=O)c2ccc(-c3ccc(C#N)cc3)cc2)CC1,6.92
20,Cc1ccc(Nc2nc(C)cc(Nc3cccc(C#N)c3)n2)cc1,6.35
21,O=c1ccc2ccc(F)c3c2n1CC3CN1CCC(NCc2cccc(-c3ccccc3F)c2)CC1 (stereo not given),1.82
22,CC(=O)c1ccc(NC(=O)NNC(=O)c2ccc(CCN3CCC(c4nc(COCC(F)(F)F)c(-c5ccc(F)cc5)o4)CC3)cc2)cc1,3.6
23,CCN(CC)CCN(Cc1ccc(-c2ccc(C(F)(F)F)cc2)cc1)C(=O)Cn1c(CCc2ccc(F)c(F)c2)cc(=O)c2ccccc21,2.16
24,O=C(c1cccc(-c2cccc(-c3nc4ccccc4[nH]3)c2)c1)N1CCCCC1CN1CCC(O)C1 (stereo not given),0.97
25,CC(=O)Nc1csc(-c2cnc(/C=C(\C)C[C@@H]3OC[C@H](C[C@@H]4O[C@H]4[C@@H](C)[C@H](C)O)[C@@H](O)[C@H]3O)o2)c1,0.74
